Target: GluN1a/GluN2A human receptors (Homo sapiens, UniProt Q12879)
Assay: Calcium influx (FLIPR) in GluN1a/GluN2A L(tk−) cells
Settings: agonist-stimulated NR1a/NR2A cells, concentrations up to 30,000 nM

## Cc1ccc(COC(=O)N2CC[C@H](CNc3ncccn3)[C@H](F)C2)cc1 [Form II, 4-methylbenzyl (3S, 4R)-3-fluoro-4-[(pyrimidin-2-ylamino)methyl] piperidine-1-carboxylate]
  effect on calcium influx: no effect

Source: patent US12410153B2, “Compounds, compositions and methods” (Avalo Therapeutics, Inc., priority 2014, dated 2025)
